# In PubChem BioAssay AID1347417 (National Center for Advancing Translational Sciences (NCATS), 2020):
# Hit rate of the full screen: of about 120,000 compounds, about 5,300 (4.4%) were called active. Inconclusive results, whose numbers are uncertain, are shown with a selection of clear calls. The call rests on the fitted dose curve; in most records, active means well fitted inhibition curve with a large enough effect; inconclusive means small, poorly fitted or top-dose-only effect; inactive means no such curve, though single readings can be large or run the other way. Where the call is inconclusive, the potency comes from a doubtful curve fit.
# Assay: qHTS Primary assay for Inhibitors of Plasmodium falciparum Dd2 growth in vitro; further: nearly all actives have a fitted effect of over 65% in size;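 on activity, negative = inhibition: plate controls were DMSO vehicle for no effect and reference drug for full effect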
# Details: P. falciparum Dd2 growth, SYBR Green, 72 h; activity, negative = inhibition: at 28.9 µM (top of the series) unless noted; series mostly up to 28.9 µM
# Outline: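 Readout: SYBR Green fluorescence, 485 nm excitation, 535 nm emission, after ~16 h lysis at 37C. Before that, Dd2-infected red cells (2.5% hematocrit) grew 72 h with compound, 29 uM top final concentration.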
# Potency means the concentration at half of the fitted maximal effect; tags describe the fitted curve by direction and shape.
SMILES,"activity, negative = inhibition",Potency,outcome
CCCCS(=O)(=O)N[C@@H]1CN(Cc2ccncc2)C[C@H]1CN(C)C,inactive: 10.6%,,
O=C1CC2CCCC(C1)N2C(=O)c1ccc(C(F)(F)F)cc1,,"inconclusive: 0.0891 µM [inhibitor, full curve, poor fit]",
Cn1cnnc1CC1CCN(C(=O)c2ccccc2F)CC1,inactive: -23%,,
CC(C)(C)OC(=O)N1CC(c2ccccc2)C1,,,inactive [at 44.1 µM]
COCC1CN(C)CC12CCN(C(=O)CC1=CCCCC1)CC2 (configuration not stated),,"inconclusive: 0.355 µM [inhibitor, full curve, poor fit]",
COc1ccc(-c2ncc(CN3CCOC(c4cccnc4)C3)cn2)cc1 (configuration not stated),,"inconclusive: 14.1 µM [inhibitor, partial curve]",
COc1ccc(CNC(=O)CCS(=O)(=O)c2cc(Br)cc3c2N(C(=O)C2CC2)CC3)cc1,,"inconclusive: 8.91 µM [inhibitor, single point]",
COC(=O)c1ccc(OCC2c3cc(OC)c(OC)cc3CCN2C(=O)c2cccc(C)c2)cc1 (configuration not stated),,"inconclusive: 11.2 µM [inhibitor, single point]",
CCC(C)NC(=O)C(NC(=O)c1cccs1)C1CCN(S(=O)(=O)c2ccc(OC)cc2)CC1 (configuration not stated),,,inactive
CNc1cc(C)nc(N2C[C@H](NC(=O)C3CCOCC3)[C@@H](C3CC3)C2)n1,inactive: -3.55%,,
COc1cccc(N2CCN(C(=O)CN3CCSc4ccc(S(=O)(=O)N(C)C)cc43)CC2)c1,,active: 11.2 µM,
Cc1ncsc1CN1CCC(C(=O)N2CCCCCCNC(=O)CC2)CC1,inactive: 2.36%,,
COc1cccc(N2CCN(C(=O)CCC[C@@H]3[C@H]4CCCN5CCC[C@@H](CN3C)[C@@H]45)CC2)c1,,"inconclusive: 2.82 µM [inhibitor, full curve, poor fit]",
COc1cc(-c2onc(C)c2C(=O)NCCCc2ccccc2)cc(OC)c1OC,,active: 11.2 µM,
CCCS(=O)(=O)N1CCCC(Cc2noc(-c3ccccc3)n2)C1 (configuration not stated),,,inactive
O=C(O)C[C@@H]1CCN(Cc2ccccc2O)C[C@@H]1CCN1C[C@@H]2C[C@H](C1)c1cccc(=O)n1C2,inactive: -8.06%,,
CC(C)NC(=O)NC1CC2(CCN(Cc3ccc(O)cc3)CC2)c2ccccc21 (configuration not stated),,active: 2.82 µM,
CCOc1cccc(CN2CCC(Oc3ccc(-c4noc(C5CC5)n4)cc3)C2)c1 (configuration not stated),,"inconclusive: 1.78 µM [inhibitor, single point]",
O=C1CCC2(CNC(=O)c3ccsc3)CCC=C2N1 (configuration not stated),inactive: 6.4%,,
N#Cc1cccc(-c2ccnc(N[C@H]3CO[C@H]4[C@@H]3OC[C@@H]4NC(=O)C3CCCCC3)n2)c1,,,inactive [at 44.1 µM]
O=C(Cc1ccc(F)cc1)N1CCC2(CC1)CC(N(Cc1ccccc1)C1CC1)CCO2 (configuration not stated),,active: 5.62 µM,
Cc1cccc(OCC(=O)N2CCC3(CC2)CN(c2ncccn2)CC3CO)c1 (configuration not stated),,"inconclusive: 5.01 µM [inhibitor, partial curve, poor fit]",
CCOCC(=O)N1CCC2(CC1)CN(Cc1ccccc1)CC2CO (configuration not stated),inactive: -8.13%,,

SMILES,"activity, negative = inhibition",Potency,outcome
COc1ccc(CN2CCC3(C2)C(=O)N(Cc2ccccc2)c2ccccc23)cc1 (configuration not stated),,,inactive
C=CCS(=O)(=O)N1CCCC(CCc2c(F)cccc2F)C1 (configuration not stated),,"inconclusive: 22.4 µM [inhibitor, partial curve, poor fit]",
COc1ccc(CN2C[C@H]3CN(S(=O)(=O)c4ccc(OC)cc4)CCN3C2=O)cc1,,"inconclusive: 11.2 µM [inhibitor, single point]",
CC(C)c1ccc(CN2CCC3OCCN(c4ccccc4)C(=O)C3C2)cc1 (configuration not stated),,"inconclusive: 10 µM [inhibitor, partial curve, poor fit]",
C[C@]1(CO)[C@H]2Cc3sc(NC(=O)C4CCC4)nc3[C@@H](CC(=O)N3CCCCC3)[C@]2(C)CC[C@H]1O,,"inconclusive: 2.51 µM [inhibitor, full curve, poor fit]",
Cc1ccc(CN2C(=O)C3(c4ccccc42)N(c2ccc(C)c(Cl)c2)C(=O)CS3(=O)=O)cc1 (configuration not stated),inactive: -7.98%,,
CCOc1ccccc1NC(=O)c1cc2c(N3CCSCC3)nc(C)cn2n1,,"inconclusive: 3.98 µM [inhibitor, partial curve, poor fit]",
COc1cc(CN2CCC3(CC2)CC(O)CCO3)cc(OC)c1 (configuration not stated),inactive: -7.6%,,
CCn1c(=O)n(CC)c2cc(NC(=O)[C@H]3CC[C@@H](N)C3)c(C)cc21,inactive: 8.34%,,
O=C(NCc1cccc(F)c1)c1nc2c(o1)CCN(Cc1cccc(F)c1F)CC2,,"inconclusive: 3.98 µM [inhibitor, partial curve]",
CC(C)C(=O)Nc1ccc(C2(C(=O)NC3CC3)CCCCC2)cc1,,"inconclusive: 11.2 µM [inhibitor, partial curve]",
COc1ccccc1NC(=O)N1CCCC1c1nncn1-c1ccccc1 (configuration not stated),,,inactive
CCCN1C(=O)C(Cc2nc3ccccc3c(=O)n2CC)c2cc(Br)ccc21 (configuration not stated),,"inconclusive: 17.8 µM [inhibitor, single point]",
COc1ccc2c(c1)NC(c1ccc(Cl)cc1)=NC(c1cccs1)=N2,inactive: 3.62%,,
CCn1c(CN2CCCCC2)nc2cc(NC(=O)COc3ccc(C(C)(C)C)cc3)ccc21,,active: 8.91 µM,
Cc1noc([C@@H]2CN(Cc3ccc(OC(C)C)cc3)C[C@H]2CO)n1,,"inconclusive: 12.6 µM [inhibitor, partial curve, poor fit]",
CC1=C(C(=O)Nc2ccccc2)C(c2ccc(O)cc2)n2nc(-c3ccc(Cl)cc3)nc2N1 (configuration not stated),,"inconclusive: 10 µM [inhibitor, single point]",
Fc1ccc(OC2CN(Cc3cncs3)C2)cc1F,,"inconclusive: 31.6 µM [inhibitor, single point]",
Cn1cc([C@@H](NC(=O)c2ccc3c(c2)CCCC3)C2CC(O)C2)cn1 (some centres not stated),inactive: -14.7%,,
O=C(CSc1nc(Nc2ccc(F)c(F)c2)c2ccccc2n1)c1ccc(Cl)cc1,,"inconclusive: 11.2 µM [inhibitor, single point]",
Cc1cnc(C2CC2)n1C1CCCN(C(=O)c2nn(C)c3ccccc23)C1 (configuration not stated),,"inconclusive: 8.91 µM [inhibitor, partial curve, poor fit]",
Cc1cccc(-n2ncc(C(=O)NCc3ccc4c(c3)OCO4)c2C2CCN(C(=O)OC(C)(C)C)CC2)c1,,"inconclusive: 10 µM [inhibitor, partial curve, poor fit]",
Cc1noc(-c2cn(C3CCN(C(=O)c4ccc(C)s4)C3)nn2)n1 (configuration not stated),,"inconclusive: 0.141 µM [inhibitor, full curve, poor fit]",

SMILES,"activity, negative = inhibition",Potency,outcome
C#CCNC(=O)c1nc(-c2cccc(C(F)(F)F)c2)c2cnccn12,,active: 3.55 µM,
Cn1cc(CN2CCCC(COc3ccccc3C(=O)N3CCCC3)C2)c2ccccc21 (configuration not stated),,"inconclusive: 0.447 µM [inhibitor, partial curve]",
CCc1ccccc1NC(=O)Nc1ccc2snnc2c1,,"inconclusive: 17.8 µM [inhibitor, single point]",
COc1cccc(C(=O)N2C[C@@H](CO)[C@H](c3nc(C4CC4)no3)C2)c1,inactive: 3.18%,,
Cc1cc(NC(=O)C(C)(C)Oc2nn(CC3CC3)c3ccc(CN4CCCC4)cc23)n(C)n1,,"inconclusive: 2.82 µM [inhibitor, partial curve, poor fit]",
CCC(CC)C(=O)N1CCc2cc(OC)c(OC)cc2C1COc1ccc(F)cc1 (configuration not stated),,"inconclusive: 17.8 µM [inhibitor, single point]",
COc1cc(NC(=O)CCCc2nnc3n(C)c(=O)c4sccc4n23)cc(OC)c1OC,inactive: 16.8%,,
CCCCCNC(=O)C1CCC(Cn2c(=O)c3sccc3n(CC)c2=O)CC1 (configuration not stated),,"inconclusive: 14.1 µM [inhibitor, partial curve, poor fit]",
CCOc1cc(/C=C(\C#N)C(=O)Nc2ccc(OC)cc2)ccc1OCc1cc(=O)n2nc(CC)sc2n1,,"inconclusive: 5.01 µM [inhibitor, partial curve]",
Cc1ccc(NC(=O)NCC2CCOCC2)cc1C,inactive: -8.2%,,
O=C(NC1CC1)c1nc(-c2cccc(F)c2)c2cnccn12,,"inconclusive: 7.08 µM [inhibitor, partial curve]",
O=[S+]([O-])(c1ccccc1)N1CC2(COCCN(Cc3ccc(Cl)cc3)C2)C1,,"inconclusive: 31.6 µM [inhibitor, single point]",
Cc1ccc(-c2nc3scc(CCNS(=O)(=O)c4ccc(Oc5ccccc5)cc4)n3n2)cc1,,"inconclusive: 11.2 µM [inhibitor, single point]",
COCCN1C(=O)c2ccccc2C(C(=O)Nc2nnc(CC(C)C)s2)C12CCCC2 (configuration not stated),,"inconclusive: 1.26 µM [inhibitor, partial curve, poor fit]",
CC(=O)Nc1ccc(CN2CCn3c(nn(-c4cccc(Cl)c4)c3=O)C2)cc1,,"inconclusive: 10 µM [inhibitor, single point]",
CCCCN(C)CCNC(=O)c1cc(-c2ccc(Cl)s2)nc2ccccc12,,"inconclusive: 11.2 µM [inhibitor, single point]",
Cc1cc2cc(C(=O)N3CCN(c4ncccc4C#N)CC3)ccc2o1,inactive: 9.43%,,
CCc1ccc(NC(=O)CN2C(=O)CC(c3ccccc3)Sc3ccccc32)cc1 (configuration not stated),,"inconclusive: 17.8 µM [inhibitor, single point]",
CC(C)(C)OC(=O)N1CCC(c2c(C(=O)NCCN3CCOCC3)cnn2-c2ccc(F)cc2F)CC1,,"inconclusive: 11.2 µM [inhibitor, partial curve]",
Cn1c([C@H]2CCN(C3CCCCC3)C2)nc2ccccc21,inactive: -11.6% [at 44.1 µM],,
COc1ccc(-c2cccc(NS(=O)(=O)c3ccc(NC(C)=O)cc3)c2)nn1,,"inconclusive: 11.2 µM [inhibitor, partial curve]",
